In the supplement of paper PMC6609913:
Structures can show the parent of a compound that is named as a salt. ± gives the standard deviation of the averaged measurements. The full ranking holds about 1,300 compounds; the median of “normalised cell viability” is about 1, and the lowest 2% start at about 0.14. This is one part of the list.

Test system: V-C8 (BRCA2-deficient hamster cells)
Assay: normalised cell viability (fraction of plate median); higher = more viable cells (less toxic)
Details: 5 µM
In short: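 BRCA2-deficient hamster V-C8 cells and BRCA2-restored V-C8 cells were plated in 96-well plates, and library drugs were added 24 h later at 5 μM in 100 μl medium. Exposure lasted 3 days in screen 1 and 6 days in screen 2, next to solvent-only wells. Viability was then read by resazurin assay, median-plate normalised and averaged across triplicate wells.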

Structure (SMILES) | normalised cell viability (treatment time: 3 days) | normalised cell viability (treatment time: 6 days)
COc1ccc(CCN)cc1OC [Homoveratrylamine] | 1.07 ± 0.039 | 1.06 ± 0.041
C[C@]12CCC(=O)C=C1CC[C@@H]1[C@@H]2C(=O)C[C@]2(C)C(=O)CC[C@@H]12 [Adrenosterone] | 1.19 ± 0.085 | 1.11 ± 0.017
C[N+]1(C)CCOC(O)(c2ccc(-c3ccc(C4(O)C[N+](C)(C)CCO4)cc3)cc2)C1 (centres undefined) [Hemicholinium bromide] | 1 ± 0.038 | 1.03 ± 0.05
O=C(O)CCCc1ccc(N(CCCl)CCCl)cc1 [Chlorambucil] | 0.163 ± 0.01 | 0.227 ± 0.015
CC[C@@H](C(N)=O)N1CCCC1=O [Levetiracetam] | 0.931 ± 0.042 | 0.782 ± 0.021
COc1ccc(C(=O)N2CCCC2=O)cc1 [Aniracetam] | 1.11 ± 0.047 | 1.06 ± 0.022
CCN[C@@H](C)Cc1cccc(C(F)(F)F)c1 [Dexfenfluramine hydrochloride] | 0.908 ± 0.092 | 1.02 ± 0.074
C[CH2][Hg][S]c1ccccc1C(=O)[O-].[Na+] [Thimerosal] | 0.0995 ± 0.0026 | 0.126 ± 0.0061
COc1ccc2c(c1)[C@]13CCCC[C@@H]1[C@H](C2)N(C)CC3 [Dextromethorphan hydrobromide monohydrate] | 1.17 ± 0.041 | 1.06 ± 0.14
CNCC(O)c1ccc(O)cc1 (racemic) [(+,-)-Synephrine] | 1.05 ± 0.035 | 1.02 ± 0.0054
C[C@]12CC[C@@H](O)C[C@@H]1CC[C@@H]1[C@@H]2CC[C@]2(C)C(=O)CC[C@@H]12 [Androsterone] | 1.07 ± 0.03 | 1.05 ± 0.071
C=CC[C@]1(O)CC[C@H]2[C@@H]3CCC4=CC(=O)CCC4=C3C=C[C@@]21C [Altrenogest] | 0.769 ± 0.022 | 0.73 ± 0.068
CC(Cc1ccc(O)cc1)NCC(O)c1cc(O)cc(O)c1 (centres undefined) [Fenoterol hydrobromide] | 1.07 ± 0.052 | 1.12 ± 0.15
C=C1[C@@H]2CC[C@H]3[C@]4(C)C[C@H](O[C@@H]5O[C@H](CO)[C@@H](OS(=O)(=O)O)[C@H](OS(=O)(=O)O)[C@H]5OC(=O)CC(C)C)C[C@@H](C(=O)O)[C@H]4CC[C@]3(C2)[C@@H]1O [Atractyloside potassium salt] | 1.05 ± 0.051 | 1.09 ± 0.079
C1CCc2nnnn2CC1 [Pentylenetetrazole] | 1.01 ± 0.085 | 1.01 ± 0.087
CC(C)CC(N(C)C)C1(c2ccc(Cl)cc2)CCC1 (centres undefined) [Sibutramine HCl] | 0.653 ± 0.088 | 0.729 ± 0.017
O=c1[nH]c2ccccc2n1CCCN1CCC(n2c(=O)[nH]c3cc(Cl)ccc32)CC1 [Domperidone] | 1.02 ± 0.011 | 1.19 ± 0.15
O=C([O-])c1ccccc1-c1c2cc(Br)c(=O)cc-2oc2[c]([Hg+])c([O-])c(Br)cc12.[Na+].[Na+].[OH-] [Merbromin] | 0.669 ± 0.048 | 0.583 ± 0.016
CC(C)[N+](C)(CCC(C(N)=O)(c1ccccc1)c1ccccc1)C(C)C [Isopropamide iodide] | 1.07 ± 0.1 | 1.04 ± 0.15
C#C[C@]1(O)CC[C@H]2[C@@H]3CCC4=CC(=O)CC[C@]4(C)[C@H]3CC[C@@]21C [Ethisterone] | 1.01 ± 0.068 | 1.05 ± 0.024
S=C(NC1CCCCC1)N1CCC(c2cnc[nH]2)CC1 [Thioperamide maleate] | 1 ± 0.018 | 1.02 ± 0.014
C[C@]12CC[C@H]3[C@@H](CCC4=CC(=O)CC[C@@H]43)[C@@H]1CC[C@@H]2O [Nandrolone] | 0.993 ± 0.11 | 1.02 ± 0.028
COc1ccc(CN2CCNCC2)c(OC)c1OC [Trimetazidine dihydrochloride] | 1.05 ± 0.06 | 1.06 ± 0.023
CC(C)N(CCC(C(N)=O)(c1ccccc1)c1ccccn1)C(C)C (centres undefined) [Disopyramide] | 1.08 ± 0.09 | 1.004 ± 0.0085
C[C@H](N)[C@H](O)c1ccc(O)c(O)c1 [Levonordefrin] | 1.05 ± 0.05 | 1.02 ± 0.028
O=[N+]([O-])O[C@@H]1CO[C@H]2[C@@H]1OC[C@@H]2O [Isosorbide mononitrate] | 1.04 ± 0.048 | 1.02 ± 0.033
CN1[C@@H]2CC[C@H]1C[C@@H](OC(=O)[C@H](CO)c1ccccc1)C2 [Hyoscyamine (L)] | 1.04 ± 0.088 | 0.959 ± 0.047
